Source: the RNAGym collection of RNA variant scans (doi:10.1073/pnas.2313332121)
This sample is rich in variants without activity.

B1: TPR 5TU (parent)
chain: GGAUCUUCUCGAUCUAACAAAAAAGACAAAUCUGCCACAAAGCUUGAGAGCAUCUUCGGAUGCAGAGGCGGCAGCCUUCGGUGGCGCGAUAGCGCCAACGUUCUCAACUAUGACACGCAAAACGCGUGCUCCGUUGAAUGGAGUUUAUCAUG

Variants of: B1
Test: polymerase ribozyme fitness, log enrichment relative to wild type (log ratio); higher = more active; in vitro selection for triplet polymerase activity
Method in brief: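 Libraries of mutants in each subunit of a heterodimeric triplet polymerase ribozyme were generated by PCR and transcribed. In triplicate, each went through one in vitro selection round: annealing with biotinylated primer, partner subunit and triplets; frozen incubation at −7 °C; gel excision of extended constructs; streptavidin-bead capture; RT-PCR. Fitness, taken from Illumina sequencing of input and output libraries, is the logarithm of a genotype's enrichment over wild-type enrichment, averaged across replicates with inverse-variance weights. The logarithm is base 2, and genotypes needed ≥10 input reads and ≥1 read per output to be kept.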

Point of comparison: GGAUCUUCUCGAUCUAACAAAAGAGACAAAUCUGCCACAAAGCUUGAGAGCAUCUUCGGAUGCAGAGGCGGCAGCCUUCGAUGGCGCGAUAGCGCCAACGUUCUCAACUAUGACACGCAAUACGCGUGCUCCGUUGAAUGUAGUUUAUCAUG [A23G G81A A121U G141U], “polymerase ribozyme fitness (log ratio)” value -2.76. Against it:
- GGAUCUUCUCGAUCUAACAAAAGAGACAAAUCUGCCACAAAGCUUGAGAGCAUCUUCGGAUGUAGAGGCGGCAGCCUUCGGUGGCACGAUAGCGCCAACGUGGUCAACUAUGACACGCAAAACGCGUGCUCCGUUGAACGGAGUAUAACAUG [A23G C63U G86A U102G C103G U139C U145A U148A] — lower, ≤ -4.2
- GGAUCUUCUCGAUCUAACAAAAGAGACAAAUCUGCCACAAAGCUUGAGAGCAUCUUCCGAUGCAGAGGCGGCAGCCUUCGGUGGCGCGAUAGCGCCAACGUUCGCAACUAUGACACGCAAAACGCGUGCUCCGUUGAAGGCAGUUUAUCAGG [A23G G58C U104G U139G G141C U151G] — lower, ≤ -4.2
- GGAUCUUCUCGAUCUAACAAAAGAGACAAAUCUGCCACAAAGCUUGAGAGCAUCUUCGGAUGCAGAGGCGGCAGCCUUCGGUGGCGCGAUAGCGCCAACGUUCUCAACUAUGACACGCAAAACCCGUGCUCCGUUGAAUGGAGUUUGUCGUG [A23G G124C A147G A150G] — lower, ≤ -4.2
- GGAUCUUCUCGAUCUAACAAAAGAGACAAAUCGGCCUCAAAGCUUGAGAGCAUCUUCUGAUGCAGAGGUGGCAGCCUUCGGUGGCGCGAUAGCGCCAACGUUCUCAACUUUGACACGCAAAACGCGUGCUCCGUUGAAUGGAGUUUAUCAUG [A23G U33G A37U G58U C69U A110U] — lower, ≤ -4.2
- GGAUCUUCUCGAUCUAACAAAAGAGACAAAUCUGCCACAAAGCUUGAGAGCAUCUUCGAAUGCAGAGUCGGCAGCCUUCGGUGGCGCGAUAGCGCCAACGUUCUCAACUAUGACACGCAAAACGCGUGCUCCGUUGAAUGGUGUUUAUCAUG [A23G G59A G68U A142U] — lower, ≤ -4.2
- GGAUCUUCUCGAUCUAACAAAAGAGACAAAUCUGCCACAAAGCAUGAGAGCAUCUUCGGAAGCAGAGGCUGCAGCGUUCGGUGGCGCGAUAGGGCCAACGUUCUCAACUAUGACACGCAAAACGCGUGCUCCGUUGAAUGGACUUUAUCAUG [A23G U44A U61A G70U C76G C93G G143C] — lower, ≤ -4.2
- GGAUCUUCUCGAUCUAACAAAAGAGACAAAUCUGCCACAAAGCUUGAGACCAUCUUCGGAUGCAGAGGCGGCAGCCUUCGGUGGCGCGAUAACGCCAGCGUUCUCAACUAUGACACGCAAAACGCGUGCUCCGUUGAAUGGAGUUUAUCAUG [A23G G50C G92A A98G] — lower, ≤ -4.2
- GGAUCUUCUCGAUCUAACAAAAGAGACAAAUCUGCCACAAAGCUUGAGAGCAUCUUCGGAUGCAGAGGCGGCAGCCUUCGGUGGCGAGAUAGCGCCAACGUUCUCAACUAUGACACGCAAAACGCGUGCUCCGUUGAAUGGAGUUUAUCAUG [A23G C87A] — lower, ≤ -4.2
- GGAUCUUCUCGAUCUAACAAAAGAGACAAAUCUGCCACAAAGCUUGAGAGCAUCUUCGGAUGCAGAGACGGCAGCCUUCGGUGGAGCGAUAGCGCCAACGUUCUCAACUAUGACACGCAAAACGCGUGCUCCGUUGAAUGGAUUUUAUCAUG [A23G G68A C85A G143U] — lower, ≤ -4.2
- GGAUCUUCUCGAUCUAACAAAAGAGACAAAUCUGCCACAAAGCUUGAGAGCAUCUUCGGAUGCAGAGGCGGCAGCCUUGGGUGGCGCGAUAGCGCCAACGUUCUCAACUAUGACACGCAAAACGCGUGCUCCGUUGAAUGGAGUUUACCACG [A23G C79G U148C U151C] — lower, ≤ -4.2
- GGAUCUUCUCGAUCUAACAAAAGAGACAAAUCUGCCACAAAGCUUGAGAGCAUCUUCGGAUGCAGAGGCGGCAGCCUUGGGUGGCGCGAUAGCGCCAACGUUCUCAACUAUGACACGCAAAACGCGUGCUCCGUUGAAUGGAGUUUAUCAUG [A23G C79G] — lower, ≤ -4.2
- GGAUCUUCUCGAUCUAACAAAAGAGACAAAUCUGCCACAAAGCUUGAGAGCAUCUUCGAAUCCAGAGGCGGCAGCCUUCGGUGGCGCGAUCGCGACAACGUUCUCAACUAUGACACGCAAAACGCGUGCUCCGUUGAAUGGAGUUUAUCAUG [A23G G59A G62C A91C C95A] — lower, ≤ -4.2
- GGAUCUUCUCGAUCUAACAAAAGAGACAAAUCUGCCACAAAGCUUGAGAGCACCUUCGGAUGCAGAGGCGGCACCCUUCGGUGGCGCGAUAGCGCCAACGUUCUCAACUAUGACACGCAAAACGCGUGCUCCGUUGAAUGGAGUUUAUCAUG [A23G U53C G74C] — lower, ≤ -4.2
- GGAUCUUCUCGAUCUAACAAAAGAGACAAAUCUGCCACAAAGCUUGAGACCAUCUUCGGAUGCAGAGGCGGCAGCCUUCGGUGGCGCGAUAGCGCCAACGUUCUCAACUAUGACACGCAAAACGCGUGCUCCGUUGAAUGGAGUUUAUCAUG [A23G G50C] — lower, -4
- GGAUCUUCUCGAUCUAACAAAAGAGACAAAUCUGCCACAAAGCUUGAGAGCAUCUUCGGAUGCAGAGGCGGCAGCCUUCGGUGGCGUGAUAGCGCCAACGUUCUCAACUAUGACACGCAAAACGCGCGCUCCGUUGAAUGGAGUUUAUCAUG [A23G C87U U127C] — lower, -3.81
- GGAUCUUCUCGAUCUAACAAAAGACACAAAUCUGCCACAAAGCUUGAAAGCAUCUUCGGAUGCAGAGGCGGCAGCCUUCGGUGGCGCGAUUGCGCCAACGUUCUCAACUAUGACACGCAAAACGCGUGCUCCGUUGAAUGGAGUUUAUCAUG [A23G G25C G48A A91U] — lower, ≤ -4.2
- GGAUCUUCUCGAUCUAACAAAAGAGACAAACCUGCCACAAAGCUUGAGAGCAUCUUCGGAUGCAGAGGCGGCAGCCUUCGGUGGCGCGAUAGCGCCAACGUUAUCAACUAUGACACGCAAAACGCGUGCUCCGUUGAAUGGAGCUUAUCAUG [A23G U31C C103A U144C] — lower, ≤ -4.2
- GGAUCUUCUCGAUCUAACAAAAGAGACAAAUCUGCCACAAAGCUUGAGAGCAUCUUCGGAUGCAGAGGCGGCAGCCUUCGGUGGGGCGAUAGCGCCAACGUUCUCAACUAUGACACGCAAAACGGGUGCUCCGUUGAAUGGCGUUUAUCAUG [A23G C85G C125G A142C] — lower, ≤ -4.2
